Biological target: T1, POPDC1-Myc (Popeye domain-containing protein 1, Myc-tagged) (mouse, UniProt Q9ES83 1-358)
T1 sequence (looked up): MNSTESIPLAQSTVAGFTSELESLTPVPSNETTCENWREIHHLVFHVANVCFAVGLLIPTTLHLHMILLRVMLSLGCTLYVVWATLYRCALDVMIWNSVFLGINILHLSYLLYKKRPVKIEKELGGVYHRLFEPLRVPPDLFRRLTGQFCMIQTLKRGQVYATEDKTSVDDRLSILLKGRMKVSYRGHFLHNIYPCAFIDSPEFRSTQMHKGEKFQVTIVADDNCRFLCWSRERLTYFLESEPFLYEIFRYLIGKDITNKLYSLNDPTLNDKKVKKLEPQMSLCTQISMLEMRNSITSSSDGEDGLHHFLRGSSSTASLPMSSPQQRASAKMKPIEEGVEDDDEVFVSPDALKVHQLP
Experiment: co-IP

fold Ca2+/calmodulin-stimulated AC activity over IgG controls: 1.8 fold
B1: AC8 (adenylyl cyclase type 8), non-tagged (enzyme)
chain: MELSDVRCLTGSEELYTIHPTPPAGDGRSASRPQRLLWQTAVRHITEQRFIHGHRGGSGSGSGGSGKASDPAGGGPNHHAPQLSGDSALPLYSLGPGERAHSTCGTKVFPERSGSGSASGSGGGGDLGFLHLDCAPSNSDFFLNGGYSYRGVIFPTLRNSFKSRDLERLYQRYFLGQRRKSEVVMNVLDVLTKLTLLVLHLSLASAPMDPLKGILLGFFTGIEVVICALVVVRKDTTSHTYLQYSGVVTWVAMTTQILAAGLGYGLLGDGIGYVLFTLFATYSMLPLPLTWAILAGLGTSLLQVILQVVIPRLAVISINQVVAQAVLFMCMNTAGIFISYLSDRAQRQAFLETRRCVEARLRLETENQRQERLVLSVLPRFVVLEMINDMTNVEDEHLQHQFHRIYIHRYENVSILFADVKGFTNLSTTLSAQELVRMLNELFARFDRLAHEHHCLRIKILGDCYYCVSGLPEPRQDHAHCCVEMGLSMIKTIRYVRSRTKHDVDMRIGIHSGSVLCGVLGLRKWQFDVWSWDVDIANKLESGGIPGRIHISKATLDCLNGDYNVEEGHGKERNEFLRKHNIETYLIKQPEDSLLSLPEDIVKESVSSSDRRNSGATFTEGSWSPELPFDNIVGKQNTLAALTRNSINLLPNHLAQALHVQSGPEEINKRIEHTIDLRSGDKLRREHIKPFSLMFKDSSLEHKYSQMRDEVFKSNLVCAFIVLLFITAIQSLLPSSRVMPMTIQFSILIMLHSALVLITTAEDYKCLPLILRKTCCWINETYLARNVIIFASILINFLGAILNILWCDFDKSIPLKNLTFNSSAVFTDICSYPEYFVFTGVLAMVTCAVFLRLNSVLKLAVLLIMIAIYALLTETVYAGLFLRYDNLNHSGEDFLGTKEVSLLLMAMFLLAVFYHGQQLEYTARLDFLWRVQAKEEINEMKELREHNENMLRNILPSHVARHFLEKDRDNEELYSQSYDAVGVMFASIPGFADFYSQTEMNNQGVECLRLLNEIIADFDELLGEDRFQDIEKIKTIGSTYMAVSGLSPEKQQCEDKWGHLCALADFSLALTESIQEINKHSFNNFELRIGISHGSVVAGVIGAKKPQYDIWGKTVNLASRMDSTGVSGRIQVPEETYLILKDQGFAFDYRGEIYVKGISEQEGKIKTYFLLGRVQPNPFILPPRRLPGQYSLA[about 20 residues skipped]GHYNRRTLLSPSGTEPGAQAEGTDKSDLP

Source: article doi:10.1101/2021.12.21.473719 (bioRxiv, 2021)
